Measured values published in the supplement of paper PMC4723716.
± gives the standard deviation of the averaged measurements. In all, about 3,600 compounds were measured (“viability index relative to DMSO control”: median about 0.81, lowest 2% from about 0.13 on). Some of the results follow.

system: Plasmodium falciparum NF54 stage V gametocytes; test: viability index relative to DMSO control (fraction); higher = less gametocyte killing; conditions: 1.25 µM, incubation time: 72 h
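Further: 384-well serum-free SaLSSA: MitoTracker Red CMXRos staining with saponin lysis, high-content imaging, treated-well particle count divided by plate-mean count of DMSO wells.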

Row | SMILES | viability index
1 | Oc1ccccc1C=Nc1ccccc1[Te]c1ccccc1N=Cc1ccccc1O | 0.0513
2 | CCc1cc2c(cc1-c1csc(NC(=N)N)n1)C(C)(C)CCC2(C)C | 0.759
3 | C=CC1CN2CCC1CC2C(O)c1ccnc2ccccc12 (stereo not drawn) | 0.751 ± 0.046
4 | Cc1ccc2c(c1)C1CN(C)CCC1N2C(=O)c1cc2ccccc2o1 (stereo not drawn) | 0.982
5 | CN1CCN(c2ccc(NC(=O)Oc3ccccc3)cc2)CC1 | 0.798
6 | C[C@@H]1C[C@@H]([C@H](O)CC2CC(=O)NC(=O)C2)C(=O)[C@@H](C)C1 | 0.308
7 | CN1CCc2cc3c(c4c2C1Cc1ccccc1-4)OCO3 (stereo not drawn) | 0.975
8 | CC1CCC2C(C)C(=O)OC3OC4(C)CCC1C32OO4 (stereo not drawn) | 0.5
9 | COC(=O)c1ccc(Cn2cc(C=O)c3ccccc32)o1 | 0.971
10 | O=c1cccc2n1CC1CC2CN(Cc2cccc(O)c2)C1 (stereo not drawn) | 0.898
11 | CCOC(=O)CC(C)(O)P(=O)(OC)OC (stereo not drawn) | 1.28
12 | CC(C)(C)C(/C=C/c1ccc(Cl)cc1Cl)n1nnnc1C1(Nc2ccc(Cl)cc2)CCCCC1 (stereo not drawn) | 0.877
13 | COc1ccc(C(Cc2ccccc2)NC2CN3CCC2CC3)cc1 (stereo not drawn) | 1.19
14 | O=C(Cn1c2ccccc2c(=O)c2ccccc21)Nc1ccc([N+](=O)[O-])c(Br)c1 | 0.815
15 | N#CC1=C(N)Oc2c(c(=O)oc3ccccc23)C1c1ccoc1 (stereo not drawn) | 1.08
16 | CCCCCCCCCCCCn1ccc(=N)cc1 | 0.48
17 | CCCCCCc1cc(O)c2c3c(c(=O)oc2c1)CCC(C)C3 (stereo not drawn) | 0.588
18 | c1ccc(CCNC2CCN(Cc3ccccc3)CC2)cc1 | 0.759
19 | C=CC1CN2CCC1CC2[C@H](O)c1ccnc2ccc(O)cc12 (stereo partly drawn) | 0.687
20 | CCC1CN2CCC1CC2C(O)c1ccnc2ccccc12 (stereo not drawn) | 0.712
21 | C[n+]1c2n(c3ccccc31)N=C(c1ccccc1)C[Se]2 | 1.03

Row | SMILES | viability index
22 | Clc1cccc(CNC2CCN(CCc3ccccc3)CC2)c1 | 0.939
23 | O=C1Nc2ccccc2Sc2ccccc21 | 0.877
24 | CCC(C)N1CCN(Cc2cccc(OC)c2OC)CC1 (stereo not drawn) | 0.882
25 | Cc1nc2ccccc2c(=O)n1-c1ccc([N+](=O)[O-])cc1 | 0.58
26 | NC(=O)CN1CC(O)CC1=O (stereo not drawn) | 0.0308
27 | C=CC1CN2CCC1CC2C(OC(=O)c1ccco1)c1ccnc2ccccc12 (stereo not drawn) | 0.46
28 | OC1(c2ccc(Cl)c(C(F)(F)F)c2)CCN(CCOC2c3ccccc3CSc3ccc(Cl)cc32)CC1 (stereo not drawn) | 0.589
29 | CC(C)[C@@]1(NC(=O)[C@@H]2C[C@@H]3c4cccc5[nH]cc(c45)C[C@H]3N(C)C2)O[C@@]2(O)[C@@H]3CCCN3C(=O)[C@H](Cc3ccccc3)N2C1=O | 0.74
30 | N#Cc1cc(N2CC3CC(C2)c2cccc(=O)n2C3)c([N+](=O)[O-])cc1C#N (stereo not drawn) | 1.11
31 | CCCCCCn1c(=O)c(C(=O)NCC[N+](CC)(CC)CC)c(O)c2ccccc21 | 0.796
32 | C=CC1CN2CCC1CC2C(OC(=O)C1CC1)c1ccnc2ccccc12 (stereo not drawn) | 0.902
33 | C=CC1CN2CCC1CC2[C@@H](OC(=O)c1ccc(OC)cc1)c1ccnc2ccccc12 (stereo partly drawn) | 1.28
34 | O=C(c1ccccc1)C1NC1c1ccc(Br)cc1 (stereo not drawn) | 0.953
35 | CSC(Cl)=C(NC(C)=O)[P+](c1ccccc1)(c1ccccc1)c1ccccc1 | 0.871
36 | CCOC(=O)c1c(C)n(Cc2ccccc2)c2c1cc(O)c1c2c(-c2ccccc2)nn1-c1ccccc1 | 0.826
37 | C=CC1CN2CCC1CC2[C@@H](OC(=O)c1ccc(C(C)(C)C)cc1)c1ccnc2ccc(OC)cc12 (stereo partly drawn) | 1.02
38 | CCN1CCN(c2c(Cl)cccc2NC(=O)C(Cl)(Cl)Cl)CC1 | 0.712
39 | O=C1CN=C(c2ccccc2Cl)c2cc(Cl)ccc2N1Cc1cccc([N+](=O)[O-])c1 | 0.788
40 | CC(C)N1CC=C(c2c[nH]c3ccccc23)CC1 | 0.887
41 | CCCc1cc(O)c2c3c(c(=O)oc2c1)CN(C)CC3 | 0.552
42 | CCn1c(C)cc(/C=C2\C(=O)NC(=O)N(c3cccc(Cl)c3)C2=O)c1C | 1.12

Row | SMILES | viability index
43 | C=CC1CN2CCC1CC2C(OC(C)=O)c1ccnc2ccc(OC)cc12 (stereo not drawn) | 0.801
44 | CC(C)NC(=O)c1cn(Cc2ccccc2)cc(C(=O)NCCc2nc3ccccc3[nH]2)c1=O | 0.942
45 | NC(=N[N+](=O)[O-])Nc1ccc(NC(=O)Nc2ccc(Cl)cc2)cc1 | 0.545
46 | O=c1c2ccccc2nc(C=Cc2ccc([N+](=O)[O-])o2)n1-c1ccc(Br)cc1 | 0.718
47 | C=CC1CN2CCC1C(C(O)c1ccnc3ccc(OC)cc13)C2 (stereo not drawn) | 0.411
48 | COc1cc(CN2CC3CC(C2)c2cccc(=O)n2C3)ccc1O (stereo not drawn) | 1.05
49 | CCN1CCC(N2CCC(n3c(Cc4ccccc4OC)nc4cc(F)ccc43)CC2)CC1 | 1.03
50 | C=CC12CCN(CC1)C(C(O)c1ccnc3ccc(OC)cc13)C2 (stereo not drawn) | 0.865
51 | Cc1c2ccccc2c(C)c2ccccc12 | 1.04
52 | Cc1ccc(NC=C2C(=O)NC(=S)NC2=O)cc1 | 1.01
53 | CCOC(=O)CN(N=O)C1=C(N2CC2)C(=O)c2ccccc2C1=O | 0.815
54 | C=C[C@H]1CN2CC[C@H]1C[C@@H]2[C@@H](OC(=O)Cc1cccs1)c1ccnc2ccccc12 | 0.656
55 | CCCCCCc1cc(O)c2c(c1)OC(C)(C)C1=C2CCN(C)C1 | 0.534
56 | O=C(CCl)Nc1ccc(Cl)cc1 | 0.84
57 | O=C(Nc1ccc(Cl)cc1)Oc1ccccc1 | 1.18
58 | COc1ccccc1-n1c(C=Cc2cc(Br)ccc2O)nc2ccccc2c1=O | 0.961
59 | CCN1C(=Cc2sc3ccccc3[n+]2CC)[Se]c2ccccc21 | 0.595
60 | COc1ccccc1N1CCN(Cc2cc(C)c(C)cc2O)CC1 | 0.748
61 | OP1(O)=NP(O)(O)=NP(O)(O)=NP(O)(O)=N1 | 0.491
62 | NC(=O)Cc1ccccc1 | 1.02
63 | CCCCCc1cc(O)c2c3c(c(=O)oc2c1)CN(C)CC3 | 0.323
